# In PubChem BioAssay AID686979 (National Center for Advancing Translational Sciences (NCATS), 2013):
# The campaign covered roughly 420,000 compounds. About 50,000 (12%) were called active. About 26% were inconclusive and are not listed. Calls come from the whole dose curve; as a rule, active = well fitted inhibition curve with a large enough effect; inconclusive = small, poorly fitted or top-dose-only effect; inactive = flat fitted curve, though single readings scatter. The list shows a part of the results, in another mix than the full data. Some structures have more than one record in an assay (separate samples or runs), and their calls can disagree.
# Test: qHTS for Inhibitors of human tyrosyl-DNA phosphodiesterase 1 (TDP1): qHTS in cells in presence of CPT; note: nearly all actives have a fitted effect of over 55% in size
# Conditions: chicken DT40 Tdp1-/-;hTDP1 cells + 20 nM CPT, ATP luminescence, 48 h; series mostly up to 46.2 µM; activity change, negative = growth inhibition: at the top concentration
# Summary of the method: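 Chicken DT40 Tdp1-/- cells stably complemented with human TDP1 were seeded at 400 cells/well in medium containing 20 nM camptothecin, exposed to pin-transferred compounds, and grown at 37 °C for at least 48 hr. Viability was read as ATP luminescence.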
# % is set by controls: 0 for no effect and ±100 for the full control effect; potency is the fitted concentration of half-maximal effect.
SMILES,"activity change, negative = growth inhibition",Potency
COCCCNC(=O)C(F)(F)C(F)(F)C(=O)NCCCOC,inactive: -8.99%,–
O=C(Nc1ccccc1)O[C@@H]1C[C@H]2CCCC(=O)N3CC[C@@H](C1)[C@@H]23,inactive: -9.04%,–
COc1cc(NC(=O)C(=O)Nc2ccc3nc4n(c(=O)c3c2)CCCCC4)cc(OC)c1OC,inactive: -5.95%,–
Brc1ccc2c(c1)-c1ccccc1C1=NCCN12,–,active: 1.46 µM
COC(=O)c1ccc(-c2sc3nc(N4CCOCC4)c4c(c3c2N)CCCC4)o1,–,active: 18.4 µM
CN(C)CCC[C@]1(c2ccc(F)cc2)OCc2cc(C#N)ccc21,inactive: -20.1%,–
COc1ccc2c(c1)sc(=N)n2CC(=O)Nc1cc(C)cc(C)c1,inactive: 30.2%,–
CCC(Oc1ccccc1)C(=O)N[C@@H]1C(=O)N2[C@@H]1SC(C)(C)[C@@H]2C(=O)O (stereo partly specified),inactive: 0.328%,–
c1cnc2cc3c(cc2n1)[C@@H]1CNC[C@H]3C1,inactive: 2.48%,–
CC1(C)C(O)CC[C@]2(C)C1CC[C@@]1(C)C2C(=O)C=C2[C@@H]3C[C@@](C)(C(=O)O)CC[C@@]3(C)CCC21C (stereo partly specified),inactive: 14.2%,–
CCOc1cc(/C=N/N=C2/NC(=O)C(CC(=O)O)S2)ccc1OS(=O)(=O)c1ccc(C)cc1 (stereo unspecified),inactive: 33.5%,–
O=C(O)C[C@H]1c2ccccc2S(=O)(=O)N1C1CCCCC1,inactive: -18.6%,–
O=c1cc(-c2ccc(O)cc2)oc2cc(O)cc(O)c12,–,inactive
CSc1ccc(OC2CCCCC2NS(=O)(=O)c2ccc(Cl)cc2)cc1 (stereo unspecified),–,active: 25.9 µM
COC(C[C@H](O)[C@H](C)[C@H](O)COCc1ccccc1)OC,inactive: 10%,–
CC(Cc1ccccc1)Nc1ncnc2c1ncn2C1OC(CO)C(O)C1O (stereo unspecified),inactive: 11.8%,–
C[C@H]1CN([C@@H](C)CO)C(=O)CCCn2nncc2CO[C@H]1CN(C)S(=O)(=O)c1ccc(Cl)cc1,inactive: -26.4%,–
Cc1cc(NC(=O)CS(=O)c2cn(Cc3cccc(Cl)c3)c3ccccc23)no1 (stereo unspecified),–,active: 20.6 µM
COc1cccc(N2CCN(c3ncnc4c3cnn4-c3ccc(C)cc3C)CC2)c1,–,active: 1.84 µM
O=C(CNC(=O)C1CCCCC1)NC1=NCCS1,–,active: 25.9 µM
O=C1CCN(Cc2ccccc2)S(=O)(=O)c2ccc(F)cc21,inactive: -2.23%,–

SMILES,"activity change, negative = growth inhibition",Potency
c1ccc(C2CN3CCSC3=N2)cc1 (stereo unspecified),–,inactive
CC(=O)C[C@H]1c2cc(C(F)(F)F)ccc2S(=O)(=O)N1C1CCCC1,inactive: -8.83%,–
COc1ccc(CNC(=O)Cn2cccc2C(=O)c2ccccc2C)cc1,inactive: 14.1%,–
O=C(c1ccccc1)N(c1ccccc1)c1ccccc1O,–,active: 14.6 µM
CCCN[C@H]1CCc2nc(N)sc2C1,inactive: -27.4%,–
O=C1NC[C@@H](CCCCN2C[C@H](Cc3ccccc3)N(Cc3ccccc3)C(=O)C2=O)N(CCc2ccccc2)C1=O,inactive: -12.7%,–
COc1ccc(/C=C2\SC(=O)N(CCC(=O)Nc3ccc(S(=O)(=O)Nc4nccs4)cc3)C2=O)cc1,inactive: 2.18%,–
c1ccc(-c2cn(CC3CCCCC3)nn2)cc1,inactive: -15.8%,–
CCCCCC(=O)N1C[C@@H](O)[C@H](n2cc(C3CC3)nn2)C[C@@H]1c1ccc(C)cc1,inactive: -19.7%,–
C#CCNC(=O)C1=C[C@@H](c2ccccc2)C[C@@H](OCc2ccc(CO)cc2)O1,inactive: 1.37%,–
CCOC(=O)C[C@H]1c2ccc(C(F)(F)F)cc2S(=O)(=O)N1C1CCCC1,inactive: -19.3%,–
CCOC(=O)CN1C(=O)C(O)=C(C(C)=O)C1c1ccc([N+](=O)[O-])cc1 (stereo unspecified),inactive: 30.1%,–
COc1ccccc1CNC(=O)CN1C(=O)CSc2ccc(S(=O)(=O)N3CCCC3)cc21,inactive: -10.6%,–
Cc1ccc(-n2c(CCC(=O)O)ccc2-c2cccs2)cc1C,inactive: -8.08%,–
CC(C)(C)[C@H]1COC(=O)[C@@H](Cc2ccc(F)cc2)CC/C=C/C[C@@H](CC(=O)N[C@@H](CO)Cc2ccccc2)C(=O)N1,inactive: -109%,–
CCCCN(Cc1ccccc1)S(=O)(=O)c1cc(Br)cc2c1N(C(C)=O)C(C)C2 (stereo unspecified),–,active: 16.4 µM
O=C(CN1C(=O)COc2ccc(S(=O)(=O)N3CCCCC3)cc21)NCc1ccc(F)cc1,inactive: -11.8%,–
O=C(COC(=O)CCOc1ccccc1)NCCc1ccccc1,inactive: -5.46%,–
CCN1CCC[C@H]1CNC(=O)c1c(OC)ccc(Br)c1OC,–,inactive
CCO[C@H]1OC(C(=O)N2CCOCC2)=C[C@@H](c2ccc(C(F)(F)F)cc2)[C@@H]1CCCO,–,active: 0.517 µM
Cc1oc2cc([N+](=O)[O-])c(O)c([N+](=O)[O-])c2c1C(=O)c1ccc(Cl)cc1,–,active: 23.1 µM

SMILES,"activity change, negative = growth inhibition",Potency
O=C(O)CSCC(=O)NCc1ccc(Cl)cc1,inactive: 36.2%,–
O=S(=O)(NCc1ccco1)N1CCOCC1,inactive: 35.7%,–
CC(NC(=O)C(=O)NCC1CCCO1)c1ccccc1 (stereo unspecified),inactive: 30.9%,–
CCCN=C1NC(=O)C(CC(=O)NCCc2ccc(OC)c(OC)c2)S1 (stereo unspecified),inactive: 31.1%,–
Cc1ccc(Nc2cc(C(=O)NC3CCCC3)c3ccccc3n2)cc1C,–,active: 13 µM
Cc1ccc(SCCC(=O)Nc2nccs2)cc1,inactive: 11.4%,–
C=CCOc1nc2c(c(=O)n(C)c(=O)n2C)n1Cc1ccccc1Cl,–,active: 16.4 µM
C[C@@H]1C[C@H]2[C@@H]3CCC4=CC(=O)C=C[C@]4(C)[C@@]3(F)[C@@H](O)C[C@]2(C)[C@@]1(O)C(=O)CO,–,inactive
O=C(CSc1nnc(-c2ccncc2)n1-c1ccccc1)Nc1ccc(C(=O)O)cc1,inactive: 13.5%,–
CCOc1cc(C(=O)Nc2ccc3oc(-c4ccc(CC)cc4)nc3c2)cc(OCC)c1OCC,–,active: 23.1 µM
O=C(O)C(S)C(S)C(=O)O (stereo unspecified),inactive: -9.55%,–
O=C(C[C@H]1C/C=C\C[C@@H](Cc2ccc(F)cc2)C(=O)O[C@H](c2ccccc2)CNC1=O)N[C@@H](CO)Cc1ccccc1,inactive: -21.6%,–
O=C(CSc1ccc2ccccc2c1)NCCc1ccc(O)c(O)c1,–,active: 16.4 µM
C#CCN1CC(C)/C(=N/O)CC1C (stereo unspecified),inactive: 41.5%,–
CC(C)(C)OC(=O)C[C@H]1C/C=C\C[C@H](CC(=O)NCCO)C(=O)NC[C@H](c2ccccc2)OC1=O,inactive: 1.33%,–
O=C(O)CSc1ncccn1,inactive: -4.77%,–
C=CC[C@@H](CC(=O)OC(C)(C)C)C(=O)OC[C@@H]1CCCN1C(=O)[C@H](CC=C)CC(=O)NCCO,inactive: -2.93%,–
CN(C)N=Nc1ccc(S(=O)(=O)NC(=O)Cc2ccccc2)cc1,inactive: 36.9%,–
COc1ccc(-c2cc(C(=O)Nc3c(C)n(C)n(-c4ccccc4)c3=O)no2)cc1,inactive: -14.3%,–
